According to PubChem BioAssay AID360 (National Center for Advancing Translational Sciences (NCATS), 2006):
Among all 48,000 compounds or so, about 550 (1.1%) were called active. Another 4% or so got no clear call; they are omitted. Cut-off read from the data, not from the text of the source: active = potency below about 15 µM; inconclusive = mostly about 16 µM to 33 µM; inactive = weaker than that. Some of the results follow.

target: Lysosomal acid glucosylceramidase (Homo sapiens) (UniProt P04062); assay: Glucocerebrosidase; conditions: purified enzyme, resorufin glucoside fluorescence (screen aimed at inhibitors), 20 min;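 note: the screen sought inhibitors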
Method in brief: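 Normal human glucocerebrosidase (0.2 nM final) was assayed with resorufin β-D-glucopyranoside (30 uM final) in 50mM citric acid/KH2PO4, 10mM sodium taurocholate, 0.01% tween-20, pH 5.9. Compounds were titrated; fluorescence (Ex 548, Em 600) read after 20 min at RT.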
Potency is the fitted concentration of half-maximal effect.

Chain of UniProt P04062 (P04062 whole entry, looked up): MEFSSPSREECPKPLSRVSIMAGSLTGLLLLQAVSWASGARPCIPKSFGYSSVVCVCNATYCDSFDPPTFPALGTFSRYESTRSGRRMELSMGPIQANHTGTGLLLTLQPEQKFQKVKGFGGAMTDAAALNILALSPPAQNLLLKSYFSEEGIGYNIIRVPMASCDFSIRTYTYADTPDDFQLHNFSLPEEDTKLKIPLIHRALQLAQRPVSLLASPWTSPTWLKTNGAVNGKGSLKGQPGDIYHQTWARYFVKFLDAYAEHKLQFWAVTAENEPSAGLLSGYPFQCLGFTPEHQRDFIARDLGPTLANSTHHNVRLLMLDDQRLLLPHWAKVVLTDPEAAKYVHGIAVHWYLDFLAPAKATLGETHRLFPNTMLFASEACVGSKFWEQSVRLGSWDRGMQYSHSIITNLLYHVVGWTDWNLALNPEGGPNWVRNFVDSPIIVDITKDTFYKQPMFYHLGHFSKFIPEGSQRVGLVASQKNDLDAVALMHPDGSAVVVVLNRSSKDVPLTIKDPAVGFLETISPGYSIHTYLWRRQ

Potency, inactive:
COc1ccc(NC(=O)CSC2CC(=O)N(c3ccc4c(c3)OCCO4)C2=O)cc1 (stereo not drawn) > 76.9 µM
COc1ccc2cc(C(=O)NCc3ccco3)c(=Nc3ccc(C(=O)O)cc3)oc2c1 > 76.9 µM
O=C(CNS(=O)(=O)c1cccc2nonc12)NCc1ccc(F)cc1 > 76.9 µM
COc1ccc(-c2nnc(SCC(=O)NCc3ccco3)n2C)cc1 > 76.9 µM
O=C(CC(Nc1ccccc1)C(=O)O)c1ccccc1 (stereo not drawn) > 76.9 µM
O=C1NC(=O)C2(CCc3ccccc32)N1 (stereo not drawn) > 76.9 µM
Fc1cccc(Cl)c1Cn1nnc2c(NCc3ccccn3)ncnc21 > 76.9 µM
COCCn1nnnc1CN1CCOCC1 > 76.9 µM
Cn1c(=O)[nH]c(=O)c2c1nc1n2CCCS1 > 76.9 µM
O=C(CCNC(=O)Cn1ccc2ccccc2c1=O)NCCN1CCN(c2cccc(Cl)c2)CC1 > 76.9 µM
Cc1ccc(-c2nnc(SCC(=O)Nc3ccc4c(c3)OCCO4)n2N)cc1 > 76.9 µM
COc1ccc(OC)c(-n2c(SCC(C)=O)nnc2-c2cccc(S(=O)(=O)N(C)C)c2)c1 > 76.9 µM
CCCNC(=O)c1cc(-c2ccc(Br)cc2)on1 > 76.9 µM
Cc1cc(C)cc(-c2nnc(SCC(=O)NCc3cccs3)o2)c1 > 76.9 µM
c1ccc(CSc2nnc(-c3cccs3)o2)cc1 > 76.9 µM
O=C1CC(c2cccs2)c2cc3c(cc2N1)OCCO3 (stereo not drawn) > 76.9 µM
C=CCN1C(=O)N(/C=C/C)c2cccc3cccc1c23 > 76.9 µM
Cc1ccc(Cn2c(SCC(=O)Nc3cc(C)on3)nc3ccccc3c2=O)cc1 > 76.9 µM
CCc1cccc(NC(=O)CN(C)S(=O)(=O)c2cccc3nsnc23)c1 > 76.9 µM
CCN(CC)C(=O)CSc1nnc(CCN)o1 > 76.9 µM
CC12CCC(c3c(C(=O)O)nn(-c4ccccc4)c31)C2(C)C (stereo not drawn) > 76.9 µM
CCOC(=O)C1CCCN(S(=O)(=O)c2cc(OCC(N)=O)c(C)cc2Cl)C1 (stereo not drawn) > 76.9 µM
CCOC(=O)c1cccc(NC(=O)CSc2nc(N)cc(N)n2)c1 > 76.9 µM
CCOCCCNC(=O)C1CCCN(S(=O)(=O)CC)C1 (stereo not drawn) > 76.9 µM
CCn1c(=O)cc(SCC(=O)Nc2ccc3c(c2)OCO3)c2ccccc21 > 76.9 µM
CC(=O)c1cccc(NC(=O)NCc2cccnc2)c1 > 76.9 µM
CCCOc1ccc(C2C(C(=O)c3ccc(C)o3)=C(O)C(=O)N2CCCn2ccnc2)cc1 (stereo not drawn) > 76.9 µM
COc1ccc(C2C3=C(CC(C)(C)CC3=O)N(CCN3CCOCC3)C3=C2C(=O)CC(C)(C)C3)cc1 > 76.9 µM
COC(=O)[C@@H](NC(=O)NCc1ccco1)C(C)C > 76.9 µM
Cc1cccc(N2CC(C(=O)Nc3ccc4c(c3)OCO4)CC2=O)c1C (stereo not drawn) > 76.9 µM
CC1CCN(S(=O)(=O)c2ccc3c(c2)CCN3C(=O)CCC(=O)O)CC1 > 76.9 µM
CC(C)CCn1c(Br)nc2c1c(=O)n(CC(N)=O)c(=O)n2C > 76.9 µM
COc1ccc2c(c1)CCc1c(C(=O)Nc3cc(C)n(Cc4ccc(Cl)cc4)n3)noc1-2 > 76.9 µM
CC(=O)c1ccc(N2CCN(C(=O)C3CCCN(S(=O)(=O)c4cnc[nH]4)C3)CC2)cc1 (stereo not drawn) > 76.9 µM
CCn1nc(C(=O)OC2CCOC2=O)c2ccccc2c1=O (stereo not drawn) > 76.9 µM
Cc1ccc(NC(=O)N2CCCN(Cc3ccc(F)cc3)C2)cc1C
CCOC(=O)Cc1csc(NC(=O)CSc2nnc(-c3ccc(F)cc3)o2)n1 > 76.9 µM
CC(=O)c1cccc(OCC(=O)c2cc(C)n(-c3cc(C)on3)c2C)c1 > 76.9 µM
Cc1cccc(NC(=O)CSc2nnc(-c3ccco3)o2)c1C > 76.9 µM
Cc1cc(C)n(S(=O)(=O)c2cc(Cl)ccc2Cl)n1 > 76.9 µM
COc1ccccc1OCC(=O)Nc1cccc(C(=O)N2CCOCC2)c1 > 76.9 µM
Nc1nncn1C(=O)CCCOc1ccc(Cl)cc1Cl > 76.9 µM
CC(=O)c1cccc(NC(=O)C2C3C=CC(C4CC34)C2C(=O)O)c1 (stereo not drawn) > 76.9 µM
CCCCn1c(SCc2ccc(Cl)cc2)nc2c1c(=O)[nH]c(=O)n2C > 76.9 µM
Cc1cccn2c(=O)c3cc(C(=O)NC(C)c4ccccc4)c(=N)n(CCCn4ccnc4)c3nc12 (stereo not drawn)
CCSc1nc2c(c(=O)[nH]1)C(c1ccccn1)C1=C(CC(C)(C)CC1=O)N2 (stereo not drawn) > 76.9 µM
Cn1nnc2c(NCc3ccco3)nccc21 > 76.9 µM
COc1cc2nc(SCC(=O)NCc3ccco3)n(Cc3ccc(Cl)cc3)c(=O)c2cc1OC > 76.9 µM
O=C(Nc1ccc2nn(-c3ccccc3)nc2c1)c1cccnc1 > 76.9 µM
COc1ccc(C2C(C(=O)NCc3ccccn3)c3ccccc3C(=O)N2C)cc1OC (stereo not drawn) > 76.9 µM
COc1cccc(NC(=O)CSc2nccn2-c2cccc(OC)c2)c1 > 76.9 µM
Cn1c2c(c(=O)n(C)c1=O)CN(CCCN1CCOCC1)CN2 > 76.9 µM
NC(=O)c1nc(N2CCOCC2)nc(N2CCOCC2)n1 > 76.9 µM
CN(C)C(=O)CSc1nnc(CCN)o1 > 76.9 µM
COCc1cc(C)n(CC(=O)Nc2ccccc2C(=O)OC)c(=O)c1C#N > 76.9 µM
Cc1ccc2c(c1)N(CC(=O)NC1CCCCC1C)C(=O)CO2 (stereo not drawn) > 76.9 µM
CCC(=O)OCc1cc2cccc(C)c2[nH]c1=O > 76.9 µM
CC1(C)CC(=O)c2sc(NS(C)(=O)=O)nc2C1 > 76.9 µM
